Results from the antibiotic and cytotoxicity screens of Wong et al. (2023).
The list shows a part of the results.

Assays:
HSkMC = human skeletal muscle cells; test: cytotoxicity call (relative viability < 0.9); conditions: 10 µM
HepG2 = test: cytotoxicity call (relative viability < 0.9); conditions: 10 µM
S. aureus RN4220 = test: growth inhibition call (relative growth <= 0.2); conditions: 50 µM

Question: For `O=C(C[C@H]1CC[C@H]2[C@@H](COC[C@H](O)CN2C(=O)Nc2ccc(Cl)c(Cl)c2)O1)NCc1ccc(Cl)c(Cl)c1`, which cytotoxicity call (HSkMC) is on record?
Answer: Its cytotoxicity call is “inactive”.

Question: And the cytotoxicity call (HepG2)?
Answer: The cytotoxicity call was “inactive”.

Question: What about the growth inhibition call (S. aureus RN4220) of the same molecule?
Answer: Its growth inhibition call is “inactive”.

Question: How did the cytotoxicity call (HSkMC) turn out when `CNC[C@@H]1OCCCC[C@@H](C)Oc2ccc(NC(=O)Nc3ccc(C(F)(F)F)cc3)cc2C(=O)N([C@@H](C)CO)C[C@H]1C` was run?
Answer: Its cytotoxicity call is “inactive”.

Question: And the cytotoxicity call (HepG2)?
Answer: The cytotoxicity call was “inactive”.

Question: And the growth inhibition call (S. aureus RN4220)?
Answer: The growth inhibition call was “inactive”.

Question: For `C[C@@H]1CCCCO[C@H](CN(C)Cc2ccc(C(F)(F)F)cc2)[C@@H](C)CN([C@@H](C)CO)C(=O)c2cc(NS(=O)(=O)c3cn(C)cn3)ccc2O1`, which cytotoxicity call (HSkMC) is on record?
Answer: The cytotoxicity call was “inactive”.

Question: And the cytotoxicity call (HepG2)?
Answer: The cytotoxicity call was “inactive”.

Question: And the growth inhibition call (S. aureus RN4220)?
Answer: The growth inhibition call was “inactive”.

Question: Which results are given for `COc1ccc([C@H]([C@@H](O)Cc2ccccc2)N(C[C@H](/C=C/c2ccccc2)CC(=O)N(C)C)[C@@H](Cc2ccccc2)C(OC)OC)cc1`?
Answer: cytotoxicity call (HSkMC): inactive; cytotoxicity call (HepG2): active; growth inhibition call (S. aureus RN4220): inactive

Question: For `COc1cccc(CN2C[C@@H](C)[C@H](OC)CN(C)C(=O)c3cc(NS(=O)(=O)c4cn(C)cn4)ccc3OC[C@H]2C)c1`, which cytotoxicity call (HSkMC) is on record?
Answer: The cytotoxicity call was “inactive”.

Question: What about the cytotoxicity call (HepG2) of the same molecule?
Answer: Its cytotoxicity call is “inactive”.

Question: What about the growth inhibition call (S. aureus RN4220) of the same molecule?
Answer: Its growth inhibition call is “inactive”.

Question: How did the cytotoxicity call (HSkMC) turn out when `C[C@H](CO)N1C[C@H](C)[C@H](CN(C)S(=O)(=O)c2cn(C)cn2)Oc2ncc(-c3cccc(C(F)(F)F)c3)cc2C1=O` was run?
Answer: The cytotoxicity call was “inactive”.

Question: What about the cytotoxicity call (HepG2) of the same molecule?
Answer: The cytotoxicity call was “active”.

Question: What about the growth inhibition call (S. aureus RN4220) of the same molecule?
Answer: Its growth inhibition call is “inactive”.

Question: Which results are given for `C[C@@H]1CN([C@H](C)CO)C(=O)Cc2cc(NC(=O)C3CCCCC3)ccc2O[C@@H]1CN(C)Cc1ccc(-c2ccccc2)cc1`?
Answer: cytotoxicity call (HSkMC): active; cytotoxicity call (HepG2): active; growth inhibition call (S. aureus RN4220): inactive

Question: For `CC(=O)N1C[C@@H](O)C[C@H]1C(=O)O`, which cytotoxicity call (HSkMC) is on record?
Answer: The cytotoxicity call was “inactive”.

Question: What about the cytotoxicity call (HepG2) of the same molecule?
Answer: The cytotoxicity call was “inactive”.

Question: What about the growth inhibition call (S. aureus RN4220) of the same molecule?
Answer: Its growth inhibition call is “inactive”.

Question: For `Cc1ccc(S(=O)(=O)N(C)C[C@@H]2Oc3ncc(C#CC4(O)CCCC4)cc3C(=O)N([C@H](C)CO)C[C@@H]2C)cc1`, which cytotoxicity call (HSkMC) is on record?
Answer: Its cytotoxicity call is “inactive”.

Question: And the cytotoxicity call (HepG2)?
Answer: The cytotoxicity call was “inactive”.

Question: What about the growth inhibition call (S. aureus RN4220) of the same molecule?
Answer: Its growth inhibition call is “inactive”.

Question: What does the source list for `CO[C@H]1CN(C)C(=O)c2ccc(NS(C)(=O)=O)cc2OC[C@@H](C)N(C(=O)C2CCCCC2)C[C@H]1C`?
Answer: cytotoxicity call (HSkMC): inactive; cytotoxicity call (HepG2): inactive; growth inhibition call (S. aureus RN4220): inactive

Question: Which results are given for `COC(=O)[C@@H](Cc1ccc(-n2cc(COc3ccccc3/C=C(C)/C=C/C(=O)NO)nn2)cc1)N1CC2=CCCC=C[C@@H]2[C@H]1[C@H](O)Cc1ccccc1`?
Answer: cytotoxicity call (HSkMC): inactive; cytotoxicity call (HepG2): active; growth inhibition call (S. aureus RN4220): inactive

Question: With `C[C@@H]1CN([C@H](C)CO)C(=O)c2cccc(NC(=O)c3ccncc3)c2O[C@@H]1CN(C)Cc1ccc(C(=O)O)cc1` as the molecule, how does the cytotoxicity call (HSkMC) read?
Answer: Its cytotoxicity call is “inactive”.

Question: What about the cytotoxicity call (HepG2) of the same molecule?
Answer: The cytotoxicity call was “inactive”.

Question: And the growth inhibition call (S. aureus RN4220)?
Answer: Its growth inhibition call is “inactive”.

Question: What does the source list for `COc1ccc(CN(C)C[C@@H]2OCCCC[C@@H](C)Oc3ccc(NC(=O)c4ccncc4)cc3C(=O)N([C@H](C)CO)C[C@H]2C)cc1`?
Answer: cytotoxicity call (HSkMC): inactive; cytotoxicity call (HepG2): inactive; growth inhibition call (S. aureus RN4220): inactive

Question: Which cytotoxicity call (HSkMC) does the source give for `Cc1noc(C)c1NC(=O)Nc1ccc2c(c1)C(=O)N([C@H](C)CO)C[C@@H](C)[C@H](CN(C)S(=O)(=O)c1ccc(Cl)cc1)OCCCC[C@@H](C)O2` here?
Answer: Its cytotoxicity call is “inactive”.

Question: What about the cytotoxicity call (HepG2) of the same molecule?
Answer: Its cytotoxicity call is “inactive”.

Question: What about the growth inhibition call (S. aureus RN4220) of the same molecule?
Answer: Its growth inhibition call is “inactive”.

Question: With `C[C@@H]1CN([C@H](C)CO)C(=O)c2cccc(NS(=O)(=O)c3ccc(Cl)cc3)c2O[C@@H]1CN(C)S(C)(=O)=O` as the molecule, how does the cytotoxicity call (HSkMC) read?
Answer: The cytotoxicity call was “inactive”.

Question: What about the cytotoxicity call (HepG2) of the same molecule?
Answer: The cytotoxicity call was “inactive”.

Question: And the growth inhibition call (S. aureus RN4220)?
Answer: Its growth inhibition call is “inactive”.

Question: Which results are given for `CC(C)(C)[S@@](=O)N1Cc2cc(C(=O)NCc3ccc4c(c3)OCO4)nc(-c3cccc(-c4ccccc4)c3)c2[C@H]1CCO`?
Answer: cytotoxicity call (HSkMC): inactive; cytotoxicity call (HepG2): inactive; growth inhibition call (S. aureus RN4220): inactive

Question: Which results are given for `COc1ccc(C(=O)CC(=O)c2ccc(C(C)(C)C)cc2)cc1`?
Answer: cytotoxicity call (HSkMC): active; cytotoxicity call (HepG2): inactive; growth inhibition call (S. aureus RN4220): inactive

Question: How did the cytotoxicity call (HSkMC) turn out when `COc1cccc(NC(=O)N(C)C[C@@H]2Oc3ncc(Br)cc3C(=O)N([C@@H](C)CO)C[C@H]2C)c1` was run?
Answer: The cytotoxicity call was “inactive”.

Question: And the cytotoxicity call (HepG2)?
Answer: The cytotoxicity call was “inactive”.

Question: And the growth inhibition call (S. aureus RN4220)?
Answer: Its growth inhibition call is “inactive”.

Question: For `C[C@H](CO)N1C[C@H](C)[C@@H](CN(C)C(=O)Cc2ccncc2)Oc2cc(C#CC3CC3)ccc2S1(=O)=O`, which cytotoxicity call (HSkMC) is on record?
Answer: Its cytotoxicity call is “inactive”.

Question: What about the cytotoxicity call (HepG2) of the same molecule?
Answer: The cytotoxicity call was “inactive”.

Question: What about the growth inhibition call (S. aureus RN4220) of the same molecule?
Answer: Its growth inhibition call is “inactive”.

Question: What does the source list for `C[C@H]1CN([C@@H](C)CO)C(=O)c2cc(NC(=O)Nc3ccc(C(F)(F)F)cc3)ccc2O[C@H]1CN(C)Cc1ccc(Cl)c(Cl)c1`?
Answer: cytotoxicity call (HSkMC): active; cytotoxicity call (HepG2): active; growth inhibition call (S. aureus RN4220): inactive

Question: How did the cytotoxicity call (HSkMC) turn out when `C[C@H]1CCCCO[C@@H](CN(C)C(=O)NC2CCCCC2)[C@@H](C)CN([C@@H](C)CO)C(=O)c2cc(NC(=O)Cc3ccccc3)ccc2O1` was run?
Answer: Its cytotoxicity call is “inactive”.

Question: And the cytotoxicity call (HepG2)?
Answer: Its cytotoxicity call is “inactive”.

Question: And the growth inhibition call (S. aureus RN4220)?
Answer: The growth inhibition call was “inactive”.

Question: `Cc1ccc(S(=O)(=O)N(C)C[C@H]2OCCCC[C@@H](C)Oc3ccc(NC(=O)Nc4ccccc4)cc3C(=O)N([C@@H](C)CO)C[C@H]2C)cc1` was tested. Which cytotoxicity call (HSkMC) did it give?
Answer: The cytotoxicity call was “inactive”.

Question: What about the cytotoxicity call (HepG2) of the same molecule?
Answer: The cytotoxicity call was “inactive”.

Question: And the growth inhibition call (S. aureus RN4220)?
Answer: The growth inhibition call was “inactive”.

Question: With `CO[C@@H]1CN(C)C(=O)c2ccc(NC(=O)c3ccccc3)cc2OC[C@H](C)N(C(=O)CN(C)C)C[C@H]1C` as the molecule, how does the cytotoxicity call (HSkMC) read?
Answer: Its cytotoxicity call is “inactive”.

Question: And the cytotoxicity call (HepG2)?
Answer: Its cytotoxicity call is “inactive”.

Question: What about the growth inhibition call (S. aureus RN4220) of the same molecule?
Answer: The growth inhibition call was “inactive”.

Question: For `COc1ccc(S(=O)(=O)Nc2ccc3c(c2)CC(=O)N([C@H](C)CO)C[C@@H](C)[C@@H](CN(C)Cc2ccc(Oc4ccccc4)cc2)O3)cc1`, which cytotoxicity call (HSkMC) is on record?
Answer: Its cytotoxicity call is “active”.

Question: And the cytotoxicity call (HepG2)?
Answer: Its cytotoxicity call is “active”.

Question: And the growth inhibition call (S. aureus RN4220)?
Answer: The growth inhibition call was “inactive”.
